The source of these data is PubChem BioAssay AID463173 (ICCB-Longwood Screening Facility, Harvard Medical School, 2010).

The whole screen tested about 52,000 compounds, of which about 4,300 (8.3%) were called active. Rule as the data show it: active = survival mostly below about 52% (no sharp cut-off); inactive = mostly above about 56%. This is one part of the list.

This assay relates to DeltatarO mutant. In words: S. aureus survival, RN4220 and DeltatarO strains – OD600, teichoic acid synthesis inhibitors, primary screen (AID 463173). The following applies: S. aureus RN4220 wild type/DeltatarO growth, OD600, 18 h, hits give low values, screened at 18.75 µg/mL (by protocol).
Consider `O=C(Nc1ccccc1C(=O)OCc1cc(=O)n2ccsc2n1)c1ccc(Cl)cc1`, for which the survival is inactive: 76%. As to `O=C(COCc1cc(-c2ccc(F)cc2)on1)Nc1cccc(Cl)c1Cl`, the survival is active: 46%. For the molecule `CCCc1cc(=O)[nH]c2nnc(SCC(=O)Nc3ccc(OC)cc3)n12`, the survival is inactive: 90%. As to `Cc1ccc(S(=O)(=O)c2nnn3c2nc(NC(C)c2ccccc2)c2sccc23)cc1` (stereo not given), the survival is inactive: 79%. As to `CCOc1ccccc1C(=O)Nc1ccc(S(=O)(=O)Nc2onc(C)c2C)cc1`, the survival was inactive: 77%. As for `Cc1cc(=S)[nH]c2ccccc12`, the survival is inactive: 105%. Consider `CCOc1cccc(C2c3[nH]c4ccccc4c3CCN2C(=O)c2ccccc2F)c1` (stereo not given), for which the survival is inactive: 84%.

With `Cc1cccc(-c2nc3scc(CCNS(=O)(=O)c4c(C)noc4C)n3n2)c1`, the survival was inactive: 96%. The same measure for `Cc1ccc(F)cc1NC(=O)CCc1c(C)nn(-c2ccc(N3CCCC3)nn2)c1C`: inactive: 78%. For the molecule `CCCCC(=O)Oc1ccc2oc(-c3ccc(OC)cc3)cc(=O)c2c1`, the survival is active: 30%. In the case of `CCOC(=O)c1c(SCC(=O)Nc2nc3ccccc3s2)nc(=O)[nH]c1C`, the survival is active: 6%. With `CCC(Sc1nnc(C)n2c1cc1sccc12)C(=O)Nc1ccccc1F` (stereo not given), the survival was inactive: 71%.

For the molecule `Cc1ccc(NC(=O)CSc2nc3ccc(NC(=O)c4cccs4)cc3s2)cc1`, the survival is inactive: 81%. To `CCOc1cc(CNC(=O)c2ccc(Cn3c(=O)c4cccn4c4cccnc43)cc2)ccc1OC` belongs active: 52%.

Consider `O=C(Cn1c(=O)n(Cc2ccc(Cl)cc2)c(=O)c2cccnc21)Nc1ccccc1C(F)(F)F`, for which the survival is inactive: 80%. To `Cc1ccc(NC(=O)CNC(=O)Cn2c(C)cc3ccccc3c2=O)cc1F` belongs inactive: 65%. To `COCCNC(=O)c1c(-c2ccccc2)c(-c2ccccc2)nn(C)c1=O` belongs inactive: 108%; to `Cc1ccc(-n2nc3c(=O)n(CCCC(=O)NCc4ccccc4C)nc(C)c3c2C)cc1`, inactive: 120%; to `Cn1c(=O)oc2cc(S(=O)(=O)N3CCC(C(=O)NCc4ccccc4)CC3)ccc21`, inactive: 101%. `CCOC(=O)c1c(C)c(-c2ccccc2)n(CC(=O)NCc2cccc(OC)c2)c1C`: the survival is inactive: 89%.

As to `CC(C)C(=O)c1cn(CC(=O)NCC2CCCO2)c2ccccc12` (stereo not given), the survival is inactive: 104%.

On to `Cc1ccc([N+](=O)[O-])cc1S(=O)(=O)N1CCn2cccc2C1c1ccccc1F` (stereo not given), for which the survival is inactive: 76%. `CCN(CC)c1cc2c(cc1F)c(=O)c(S(=O)(=O)c1ccccc1)cn2Cc1ccccc1`: the survival is inactive: 77%.

For `COc1ccc(CCNC(=O)NCc2noc3ccc(C)cc23)c(OC)c1`, the survival was inactive: 62%. As for `CCOC(=O)c1c(S(=O)(=O)NCC(=O)N2CCN(c3ccccc3OC)CC2)c(C)n(C)c1C`, the survival was inactive: 77%.

In the case of `CC(=O)c1cccc(NS(=O)(=O)c2c(C)nc3sc(C)cn3c2=O)c1`, the survival is inactive: 63%.

Take `CCOC(=O)c1cccc(NC(=O)CCCn2c(C)c3cnn(-c4ccccc4)c(=O)c3c2C)c1`: the survival was inactive: 58%.

In the case of `Cc1cccc(-n2ncc(C(=O)N3CCC(C)CC3)c2C2CCN(C(=O)OC(C)(C)C)CC2)c1`, the survival is inactive: 89%. Turning to `Cc1ccc(CNC(=O)CCC(=O)N2CC(C)Sc3ccccc32)cc1` (stereo not given), the survival was active: 45%. To `CCCCn1c(CNC(=O)c2ccc(OC)cc2)nnc1SCC(=O)Nc1ccccc1` belongs inactive: 76%; to `Cc1ccc(NC(=O)c2cc3c(=O)[nH]c4ccccc4c3n2C)cc1F`, inactive: 83%. To `O=S(=O)(Nc1ccc(-c2ccc(N3CCCC3)nn2)cc1)c1ccc(Br)cc1` belongs inactive: 94%; to `COc1ccc(C(=O)NCC(c2cccs2)S(=O)(=O)c2ccc(C)cc2)cc1` (stereo not given), inactive: 100%; to `CCc1ccccc1Nc1nn2c(=O)c3ccc(C(=O)Nc4cc(C)cc(C)c4)cc3nc2s1`, inactive: 77%.

For the molecule `Cc1cc(N2CCC(C)CC2)nc2ccc(NC(=O)CCC(=O)N3CCN(c4cccc(C(F)(F)F)c4)CC3)cc12`, the survival is active: 31%.

As for `CCOC(=O)c1cnc(-c2ccccc2)nc1Nc1ccc(C)cc1`, the survival was inactive: 90%. To `CCOC(=O)c1sc2ncn(CC(=O)Nc3ccc(C)cc3C)c(=O)c2c1C` belongs inactive: 69%; to `Cc1cc(C)c(/C=C/c2onc(C)c2S(=O)(=O)N2CCC(C(=O)N3CCN(c4ccccc4)CC3)CC2)c(C)c1`, inactive: 88%. On to `CC1CCc2nc3ncn(CC(=O)Nc4cccc(C#N)c4)c(=O)c3cc2C1` (stereo not given), for which the survival is inactive: 94%.

Consider `COc1cccc(NC(=O)c2cn(C3CCCCC3)c(=O)c3c2c2ccccc2n3C)c1`, for which the survival is inactive: 75%. On to `CCCCNC(=O)C(CC)Sc1nnc(-c2ccc(OC)c(OC)c2)c(-c2ccc(OC)c(OC)c2)n1` (stereo not given), for which the survival was inactive: 93%. Take `COc1ccccc1-c1nn(CCC(=O)Nc2cccc(C(C)=O)c2)c2nc(C)cc(C)c12`: the survival was inactive: 69%. To `COc1ccc(S(=O)(=O)N(CC(=O)N2CCC(C)CC2)c2ccc(C)cc2)cc1` belongs inactive: 67%; to `Cc1ccc(NCc2nnc3n2CCCCC3)cc1Cl`, inactive: 99%. The same measure for `CCOCCCNC(=O)CCc1nnc2ccc(N3CCN(c4cccc(OC)c4)CC3)nn12`: inactive: 103%; for `CCOC(=O)c1ccccc1NC(=O)CCc1c(C)nc2ncnn2c1C`: inactive: 87%. Consider `Cc1ccc2c(=O)cc(C(=O)Nc3nnc(C)s3)oc2c1`, for which the survival was inactive: 76%. In the case of `CCn1nc(-c2ccccc2)c(-c2ccccc2)c(C(=O)OCCOC)c1=O`, the survival is inactive: 54%. The same measure for `CN1C(C(=O)Nc2ccc(F)cc2F)=CC(c2cccs2)=NS1(=O)=O`: inactive: 99%; for `O=C(N/N=C/c1cccc2c1OCCO2)c1ccc(CN2CCOCC2)cc1`: inactive: 82%. As to `Cc1oc(-c2ccccc2)nc1CNC(=O)Nc1ccccc1`, the survival is inactive: 74%. To `CCOC(=O)C1=C(CN2CCC(C(=O)OCC)CC2)NC(=O)NC1c1ccc(Cl)cc1` (stereo not given) belongs inactive: 111%; to `Cc1nn(C)c2c1c(C(F)(F)F)cc(=O)n2CC(=O)NCc1ccccc1Cl`, inactive: 80%.

On to `Cc1cc(F)ccc1NC(=O)c1sc2nc(-c3cccs3)ccc2c1N`, for which the survival is active: 45%.

With `O=C(NCc1ccccc1Cl)C1CCCN1C(=O)NCc1ccccc1` (stereo not given), the survival was inactive: 81%. `CCOc1ccccc1NC(=O)C(C)Sc1nc2c(c(=O)[nH]1)CCCC2` (stereo not given): the survival is inactive: 68%. For `CC(C)OCCCN1C(=O)c2[nH]nc(-c3ccccc3O)c2C1c1ccc(OCc2ccccc2)cc1` (stereo not given), the survival was active: 28%. To `CCc1cccc(CC)c1NC1=NS(=O)(=O)c2ccccc21` belongs inactive: 70%; to `Cc1ccc(NS(=O)(=O)c2ccc3c(c2)NC(=O)CCS3)c(Br)c1`, active: -1%. On to `CC(=O)Nc1ccc(C(=O)CSc2ncn(-c3ccccc3)n2)cc1`, for which the survival is inactive: 95%.

As to `COc1ccc(OCc2nnc(-c3ccccc3)o2)cc1`, the survival was inactive: 106%. As to `CCOc1ccc(S(=O)(=O)N2CCN(c3ccccc3)CC2)cc1C(N)=O`, the survival was inactive: 185%. To `CC1CCCC(C)N1C(=O)CSc1ccc(-c2ccc3c(c2)OCCO3)nn1` (stereo not given) belongs inactive: 91%. To `Cc1ccc(Nc2c(-c3ccccc3O)nc3ccc(Br)cn23)cc1` belongs inactive: 92%; to `CC(C(=O)NCc1ccco1)N1CCN(C)CC1` (stereo not given), inactive: 95%. `Cc1cccc(NC(=O)CSc2nc3c([nH]c4ccccc43)c(=O)n2C)c1`: the survival was inactive: 89%. To `COc1ccc2c(Sc3ccc(Cl)cc3)c(C(=O)NCCCN3CCCCC3)[nH]c2c1` belongs active: -1%.

Take `CCOC(=O)c1sc(NC(=O)COc2ccccc2Cl)c(C(=O)OCC)c1C`: the survival is inactive: 96%. To `O=C(Nc1ccc(O)c(-c2nc3ccccc3o2)c1)c1ccco1` belongs inactive: 71%; to `Cc1cc(=O)n(CC(=O)O)c2ccccc12`, inactive: 101%. With `Cc1ccccc1NC(=O)CSc1nc2c(oc3ccccc32)c(=O)n1-c1ccccc1F`, the survival was inactive: 75%. Turning to `CC1CCN(C(=O)c2cc(-c3ccc(Cl)cc3)on2)CC1`, the survival was inactive: 66%. To `Oc1cccc(C(=S)N2CCCCC2)c1` belongs inactive: 80%; to `O=C(NCCc1ccccc1)c1c[nH]c2ccc(S(=O)(=O)Nc3ccccc3F)cc2c1=O`, inactive: 73%; to `COc1cc(C(=O)Nc2ccc(OCc3cc(=O)n4cc(C)sc4n3)cc2)cc(OC)c1OC`, inactive: 117%. To `O=C(CSc1ccc2ccccc2n1)Nc1nsc(-c2ccc(Cl)cc2)n1` belongs inactive: 57%; to `CC(=O)Nc1ccc(-c2nn[nH]n2)cc1`, inactive: 95%.

Consider `COc1ccc(-n2ccn(Cc3ccc(C)cc3)c(=O)c2=O)cc1OC`, for which the survival is inactive: 73%.

`O=C(c1ccc2c(c1)N(Cc1ccc(F)cc1)C(=O)c1ccccc1S2(=O)=O)N1CCC(Cc2ccccc2)CC1`: the survival was inactive: 72%. For the molecule `CC(=O)N1c2nc(-c3ccco3)nn2C2(CCCCC2)[C@@H]2CCCC[C@@H]21`, the survival is inactive: 81%. The same measure for `COc1ccc(NC(=O)CN(C)S(=O)(=O)c2ccc3[nH]c4c(c3c2)CCCC4)cc1Cl`: inactive: 88%; for `CCOc1ccccc1NC(=O)CN1CCC(NC(=O)Nc2ccccc2)CC1`: inactive: 102%; for `Cc1cccc(-n2c(=O)c3c(c4cc(C)ccc4n3C)n(Cc3ccccc3F)c2=O)c1`: inactive: 107%. With `COc1ccc(Cn2c(SCc3ccc(C(=O)NCc4ccccc4F)cc3)nc3cccnc32)cc1`, the survival was inactive: 74%. To `CCOc1ccc(S(=O)(=O)N(CC(=O)N2CCCCC2)c2ccccc2)cc1` belongs inactive: 60%; to `CC1=C(C(=O)OCC2CCCCC2)C(c2c(F)cccc2Cl)CC(=O)N1` (stereo not given), inactive: 77%; to `COc1ccc(CCNC(=O)CCc2c(C)nc3nc(C)nn3c2C)cc1OC`, inactive: 92%. On to `COc1ccc(C)cc1NC(=O)CCS(=O)(=O)c1ccc2c(c1)CC(=O)N2C`, for which the survival was inactive: 61%. To `CCc1ccc(S(=O)(=O)c2nnn3c2nc(NC2CCCC2)c2sccc23)cc1` belongs inactive: 62%. For `COc1cc(OC)c(NC(=O)Nc2ccccc2OCc2cc(=O)n3cc(C)ccc3n2)cc1Cl`, the survival is inactive: 103%.
